Among the data in PubChem BioAssay AID1625 (Sanford-Burnham Center for Chemical Genomics, 2009) are cell count values, retold here.

The other results are listed elsewhere or left out. The main result of the screen is listed elsewhere. These columns were measured beside it and carry no call. The list favours compounds with an active or inconclusive main result.

The nature of this experiment: up-regulation of insulin promoter-GFP reporter – imaging, high-content screening, mouse beta cells (AID 1625).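 Further: total cells summed across four imaged fields per well.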 Particulars: MIN6 insulin promoter-GFP reporter, measured here: cytotoxicity, nuclei count, at 5 µM.
For `O=C(Nc1ccon1)c1cccc(S(=O)(=O)N2CCCCC2)c1`, the cell count was 1400 cells.

`CCOC(=O)c1nn(-c2ccccc2C)c2nc(Nc3ccccc3)cc(=O)n12` yielded a cell count of 474 cells. On to `COc1cc(Cl)c(C)cc1NC(=O)CN(C)Cc1cccc(OC)c1OC`, for which the cell count was found to be 1010 cells. In the case of `CC(C)OC(=O)c1cc(NC(=S)Nc2ccc([N+](=O)[O-])cc2)cc(C(=O)OC(C)C)c1`, the cell count came out at 304 cells. Regarding `CCOC(=O)Cc1csc(NC(=O)c2sc3nc4c(C)cc(C)cc4cc3c2N)n1`, the cell count stood at 1820 cells. Next, `CC(=O)c1cccc(N=c2scc(-c3ccc(S(=O)(=O)N4CCOCC4)cc3)n2CCO)c1`: 328 cells; `CCOCCCNC(=O)C(NC(=O)c1ccc(=O)[nH]c1)c1ccc(Cl)cc1` (centres undefined): 241 cells. `CC[n+]1ccccc1/C=C/c1ccc(N(C)C)cc1` showed a cell count of 239 cells. Next, `O=C(CCl)Nc1cc(SCC(O)CO)cc([N+](=O)[O-])c1` (centres undefined): 439 cells; `COc1cccc(-c2csc(N3CCN(C(=O)NC45CC6CC(CC(C6)C4)C5)CC3)n2)c1`: 386 cells. The figure for `Oc1c(C=NCc2ccc(F)cc2)[nH]c2ccc(Br)c(Cl)c12` is 869 cells.

Take `COc1ccccc1N/C(N)=N/c1nc(CSc2ccc(C)cc2)cc(=O)[nH]1`: the cell count was determined as 438 cells. The figure for `C[n+]1cc(C(=O)N2CCCCC2)ccc1/C=C/c1c[nH]c2ccccc12` is 1480 cells. `CCn1c(-c2ccc(N(C)C)cc2)nc2ccccc21` registered a cell count of 261 cells.

Molecule `COc1ccc(C(CCN2CCCC(C)C2)c2c(OC)cc(OC)c3c(-c4ccccc4)cc(=O)oc23)cc1` (centres undefined) returned a cell count of 437 cells. `C=CCN1C(=O)c2cccc3c(N4CCCCC4)ccc(c23)C1=O` returned a cell count of 1230 cells. `O=C1CCCCc2sc(Br)c([N+](=O)[O-])c2N1` registered a cell count of 492 cells. On to `CCOC(=O)N1CCN(/C=C(\C#N)c2nc3ccccc3s2)CC1`, for which the cell count came out at 980 cells.

In turn, `CCOC(=O)c1cnc(Nc2nc3ccccc3o2)nc1CSC(=S)N1CCCCC1` gave a cell count of 309 cells. In turn, `CCCCCc1cc(=O)oc2c(C(CCN(CC)CC)c3ccc(N(C)C)cc3)c(OC)cc(OC)c12` (centres undefined) came in with a cell count of 323 cells. Next, `C=CCNC(=O)c1c2c(nc3ccccc13)-c1ccccc1CC2`: 1580 cells. In turn, `CCCCCCCCCCn1c2c(c(=N)c3c1CCC3)CCC2` returned a cell count of 116 cells. The figure for `Cc1ccc(-c2cc(-c3ccco3)c3c(N)c(C(=O)NN)oc3n2)cc1` is 1080 cells. The figure for `COc1cccc(C(=O)c2sc(NC(C)C)nc2N)c1` is 368 cells; for `CCn1c(SCC(=O)c2c[nH]c3ccccc23)nnc1-c1cccs1` it is 370 cells; for `CCCCNC(=O)C1CC(=O)N(C2CCCCC2)C1` (centres undefined) it is 1520 cells. The molecule `COc1ccc(-n2c(-c3ccc(Br)cc3)c[n+]3c2CCCCC3)cc1` had a cell count of 368 cells. The figure for `O=C(CSc1nc2ccc(Cl)cc2o1)NCc1ccc2c(c1)OCO2` is 915 cells; for `CCCCCCCCCCCCCCCC[n+]1ccc(/C=N/O)cc1` it is 330 cells. In turn, `CCOc1ccc(NC(=O)Cn2c(=O)oc3ccccc32)cc1` registered a cell count of 766 cells. Next, `Oc1ccccc1/C=N/Nc1nc2ccccc2o1`: 405 cells; `Cc1cc(/C=C2\Sc3ccccc3N2C)cc(C)[n+]1CC1CCCO1` (centres undefined): 393 cells. The molecule `Cc1cc(NNC(=O)Nc2cccc(Cl)c2)nc2c1c(C)nn2C` yielded a cell count of 392 cells.

For the molecule `Cc1c(-c2ccc(O)cc2)nc2nc(-c3ccccc3)c(-c3ccccc3)nn12`, the cell count was 985 cells. For the molecule `CC(C)CNC(=O)CSc1nnc(-c2cccc(S(=O)(=O)N3CCCCC3)c2)o1`, the cell count stood at 1140 cells. Next, `Cc1noc(C)c1CS(=O)(=O)c1ccc(Br)cc1`: 1660 cells; `Cc1cc(C2C(C#N)=C(N)Oc3n[nH]c(C)c32)c(C)s1` (centres undefined): 1520 cells. Consider `Cn1nc([N+](=O)[O-])nc1Sc1nnc(-c2ccccc2)o1`, for which the cell count came to 392 cells. On to `Cc1sc2cc3c(c(C(=O)c4ccccc4)[n+]2c1C)-c1cccc2cccc-3c12`, for which the cell count worked out at 265 cells. Next, `O=c1c(N2CCOCC2)c(N2CCOCC2)c1=O`: 911 cells. With `CCOc1ccc(Nc2nc(NCC3CCCO3)c3ccccc3n2)cc1` (centres undefined), the cell count was 409 cells.

For the molecule `COc1ccc(-c2ccc3c(N)c(C(=O)c4cccc(OC)c4)sc3n2)cc1`, the cell count amounted to 797 cells. Next, `OC(CNCCC1C=Nc2ccccc21)Cn1c2ccc(Cl)cc2c2cc(Cl)ccc21` (centres undefined): 380 cells. Next, `O=C(/C=C/c1ccc(N2CCC(c3ccccc3)=N2)cc1)c1ccccc1`: 1180 cells. `CCCCn1c(SCC(=O)O)nc2ccccc21` registered a cell count of 918 cells. Next, `COc1ccc(C2C=C(c3cccs3)Nc3nc(CCCO)nn32)cc1` (centres undefined): 1290 cells. The figure for `O=C(c1ccc(CS(=O)(=O)c2ccc(Br)cc2)o1)N1CCN(C2CCCCC2)CC1` is 276 cells. The figure for `COc1cccc(N2CCN(c3ncnc4c3[nH]c3ccccc34)CC2C)c1` (centres undefined) is 371 cells; for `S=C(Nc1ccc(Cl)c(Cl)c1)NC1CCN(Cc2ccccc2)CC1` it is 479 cells.

Turning to `O=S(=O)(Nc1cc(Sc2cccc3cccnc23)c(O)c2ccccc12)c1ccccc1`, the cell count came to 268 cells. For `CCOC(=O)N1[C@@H]2C=C(C)[C@@H]2[C@@H]2[C@@H](C)C(=O)N21`, the cell count worked out at 491 cells.

For `CC(=O)C1=C(C)NC(SCC(=O)c2ccc(Cl)c(Cl)c2)=C(C#N)C1c1ccco1` (centres undefined), the cell count is 945 cells. The figure for `CCn1ncc(C2=NOC(C(=O)Nc3cnn(C45CC6CC(CC(C6)C4)C5)c3)C2)c1C` (centres undefined) is 453 cells; for `CC1(C)COC(/C=C/c2ccc([N+](=O)[O-])cc2)=N1` it is 437 cells.

Molecule `Cc1nn(C)cc1N1C(=O)c2cccc3c(N)ccc(c23)C1=O` displayed a cell count of 1480 cells.

Molecule `O=c1c(Cl)c(Cl)cnn1Cc1ccccc1Cl` came in with a cell count of 423 cells.

As for `COC(=O)C1=C(Nc2ccc(C)cc2)C=C(C)C(C(=O)OC)C1c1ccc(F)cc1` (centres undefined), the cell count was found to be 476 cells. Next, `CS(=O)(=O)ON=C1CCN(S(=O)(=O)c2ccccc2)CC1`: 1390 cells. The figure for `COc1cccc(Cn2c(NCc3ccco3)nc3c2c(=O)n(C)c(=O)n3C)c1` is 314 cells.

On to `C/C(=N/NC(=O)CCC(=O)Nc1cccc(Cl)c1)c1ccc(C)cc1`, for which the cell count is 464 cells. Next, `CCCCCCN1C=CC(=C/C=C(\C#N)C(=O)OCC)C=C1`: 1660 cells; `CN1CC=C2C(C#N)=C(N)C(C#N)(C#N)[C@H](c3cccc(Cl)c3)C2C1` (some centres undefined): 908 cells; `O=C1C(Cl)=C(N2CCN(c3ccccc3[N+](=O)[O-])CC2)C(=O)c2ccccc21`: 225 cells.

`C=CCNC(=O)C1CCN(S(=O)(=O)c2ccc(Br)cc2)CC1` returned a cell count of 1120 cells. In turn, `Cc1ccc(-c2ccc(/C=C(\C#N)C(=O)Nc3cc(C)nn3-c3ccccc3)o2)cc1` displayed a cell count of 1630 cells. `Cc1ccnc(N2C(=O)c3cccc4c([N+](=O)[O-])ccc(c34)C2=O)c1` showed a cell count of 1440 cells. `O=C1c2cccc3c(O)ccc(c23)C(=O)N1Cc1ccccc1` returned a cell count of 955 cells. The figure for `Cc1ccc(-c2noc(CCC(=O)NCCN3CCN(Cc4ccccc4)CC3)n2)cc1` is 474 cells. Next, `COc1ccc(-c2cn(-c3ccc(OC)cc3)c3[n+]2-c2ccccc2CC3)cc1`: 468 cells; `COc1ccc(CCNc2c(C)c(C)nc3ncnn23)cc1`: 342 cells.

`C=CCc1cccc(/C=N/NC(=O)C(C)Nc2ccc(C)cc2)c1O` (centres undefined) registered a cell count of 490 cells. Next, `COc1ccc(NC(=O)C(C)N2c3cccc4cccc(c34)S2(=O)=O)cc1OC` (centres undefined): 445 cells. `CCCSc1nc2c(c(=O)n(C)c(=O)n2C)n1Cc1ccc(C)cc1` came in with a cell count of 497 cells. Regarding `COc1ccccc1[C@@H]1C(c2cccc(Cl)c2)=NN(c2ccc(Br)cc2)[C@H]1C(=O)N1CCOC1=O`, the cell count amounted to 384 cells.

For the molecule `CCOC(=O)C1CCN(Cc2ccc(O)c3ncccc23)CC1`, the cell count stood at 336 cells.

In the case of `O=C(Nc1nc2c(F)cc(F)cc2s1)c1ccccn1`, the cell count stood at 419 cells. Next, `COc1ccc(-n2c(-c3ccc(Cl)cc3)c[n+]3c2CCCCC3)cc1`: 261 cells; `Cc1cccc(OCCNc2nc3c(c(=O)n(C)c(=O)n3C)n2C)c1`: 1450 cells; `COc1cc([N+](=O)[O-])ccc1NC(=O)CC1SC(=Nc2ccc(F)cc2)N(CCC2=CCCCC2)C1=O` (centres undefined): 475 cells.

With `CCCCCc1cc(=O)oc2c(C(CCN3CCCC3)c3cc(OC)c(OC)c(OC)c3)c(OC)cc(OC)c12` (centres undefined), the cell count amounted to 155 cells. The molecule `Cc1ccc(OCC2Cn3c(nc4c3c(=O)[nH]c(=O)n4C)O2)cc1` (centres undefined) yielded a cell count of 476 cells. The figure for `O=C(/C=C/c1cccnc1)/C=C/c1cccnc1` is 273 cells; for `Cc1[nH]c2ccccc2c1/C=N/Nc1ccc([N+](=O)[O-])cc1S(=O)(=O)Nc1ccc(Cl)cc1` it is 723 cells; for `Cc1cccc(NC2=C/C(=N/S(=O)(=O)c3cccs3)c3ccccc3C2=O)c1` it is 397 cells.

`CCc1c(C(=O)NC2CCCCC2)[nH]c(C)c1C(C)=O`: the cell count worked out at 1360 cells. The molecule `CCOc1ccc(S(=O)(=O)N2c3ccccc3CC2C)cc1` (centres undefined) showed a cell count of 485 cells. On to `CN(C)c1ccc(/C=C/C(=O)c2c(O)c3ccccc3oc2=O)cc1`, for which the cell count was 1090 cells. Take `S=C(Sc1ccc(Cl)cc1)Sc1ccc(Cl)cc1`: the cell count was found to be 205 cells. For `COc1ccc(C2/C=C\CN(S(=O)(=O)c3cccc4cccnc34)CC(=O)N2Cc2ccc(F)cc2)cc1` (centres undefined), the cell count was 997 cells. The figure for `CCCCn1c(=N)n(CC(O)COc2cccc(C)c2)c2ccccc21` (centres undefined) is 355 cells; for `C#CC[N+](C)(C)CCCCCCCCCCCC` it is 425 cells; for `Cc1nn(Cc2ccccc2)c(Cl)c1/C=N/NC(=O)c1cccnc1` it is 490 cells. Next, `COc1ccc(/C=C2\C(=O)NC(=S)N2C(=O)c2ccc(F)cc2)cc1`: 1450 cells. Next, `N=c1c2c(-c3ccccc3)c(-c3ccccc3)n(Cc3ccco3)c2ncn1CCCn1ccnc1`: 349 cells; `COc1ccc(/C=C/c2cc(-c3ccc(C)cc3)o[n+]2C)cc1`: 210 cells. For the molecule `COc1ccc(OC)c(C2=NOC(C(=O)NCC3CCCO3)C2)c1` (centres undefined), the cell count was determined as 1240 cells. Next, `O=C(Nc1nccs1)c1cccc(N2C(=O)c3cccc4c([N+](=O)[O-])ccc(c34)C2=O)c1`: 440 cells; `C[n+]1c2n(c3ccccc31)N=C(c1ccc(-c3ccccc3)cc1)CS2`: 325 cells; `CN1/C(=C\C=C(/C#N)C(=O)Nc2ccc(Cl)cc2)C(C)(C)c2ccccc21`: 1280 cells. `O=C(c1cc([N+](=O)[O-])ccc1N1CCCC1)N1CCCC1` yielded a cell count of 1230 cells. The figure for `COc1ccc(/C=N/OCC(=O)NC(c2ccccc2)c2ccccc2)cc1OC` is 484 cells; for `CC(C)C(C)(C#N)NC(=O)CSc1nnc(C(F)(F)F)n1C` (centres undefined) it is 1210 cells; for `Cc1cc(/C=N/n2cnnc2)c(C)n1-c1ccc(OCc2ccc(Cl)cc2)cc1` it is 446 cells. The molecule `O=C(N/N=C\c1cn(-c2ccccc2)nc1-c1ccccc1)c1ccc(Br)o1` gave a cell count of 1200 cells.
